The text below walks through data of US20090117096A1 (Scripps Research, published 2009).

The target of this experiment is T1, integrin α5β1 (human, UniProt P08648 42-1049; P05556).
T1 construct: whole, on cells
Description: flow cytometry on human tumor cell panel (FIG. 1).

T1 sequence (P08648 42-1049, chain 1 of 2): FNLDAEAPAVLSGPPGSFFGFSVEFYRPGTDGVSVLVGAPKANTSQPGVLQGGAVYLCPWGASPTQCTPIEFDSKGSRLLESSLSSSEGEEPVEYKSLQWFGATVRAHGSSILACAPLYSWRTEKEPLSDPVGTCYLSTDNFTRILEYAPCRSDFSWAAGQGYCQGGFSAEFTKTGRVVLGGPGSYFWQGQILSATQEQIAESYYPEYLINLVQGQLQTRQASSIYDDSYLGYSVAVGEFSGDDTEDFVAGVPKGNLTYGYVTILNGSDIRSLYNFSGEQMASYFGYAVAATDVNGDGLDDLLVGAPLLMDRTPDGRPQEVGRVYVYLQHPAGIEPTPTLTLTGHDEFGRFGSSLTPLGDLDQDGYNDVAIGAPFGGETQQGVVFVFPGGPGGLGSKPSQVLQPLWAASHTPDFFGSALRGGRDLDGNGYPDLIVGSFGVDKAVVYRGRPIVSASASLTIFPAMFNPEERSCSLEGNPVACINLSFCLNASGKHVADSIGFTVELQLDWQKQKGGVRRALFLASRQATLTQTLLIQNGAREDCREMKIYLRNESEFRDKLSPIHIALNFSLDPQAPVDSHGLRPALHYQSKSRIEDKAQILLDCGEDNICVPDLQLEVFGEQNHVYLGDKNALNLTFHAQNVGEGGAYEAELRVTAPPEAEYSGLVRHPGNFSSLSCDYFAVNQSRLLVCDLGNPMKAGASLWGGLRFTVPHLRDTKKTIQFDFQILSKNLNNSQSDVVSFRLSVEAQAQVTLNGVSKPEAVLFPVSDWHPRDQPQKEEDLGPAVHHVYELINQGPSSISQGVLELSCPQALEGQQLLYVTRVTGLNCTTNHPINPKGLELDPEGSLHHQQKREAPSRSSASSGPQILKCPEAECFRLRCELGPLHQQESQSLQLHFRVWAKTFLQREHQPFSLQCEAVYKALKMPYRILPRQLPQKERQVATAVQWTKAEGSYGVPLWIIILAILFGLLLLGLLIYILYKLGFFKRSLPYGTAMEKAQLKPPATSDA
T1 sequence (P05556 21-798, chain 2 of 2, further chain): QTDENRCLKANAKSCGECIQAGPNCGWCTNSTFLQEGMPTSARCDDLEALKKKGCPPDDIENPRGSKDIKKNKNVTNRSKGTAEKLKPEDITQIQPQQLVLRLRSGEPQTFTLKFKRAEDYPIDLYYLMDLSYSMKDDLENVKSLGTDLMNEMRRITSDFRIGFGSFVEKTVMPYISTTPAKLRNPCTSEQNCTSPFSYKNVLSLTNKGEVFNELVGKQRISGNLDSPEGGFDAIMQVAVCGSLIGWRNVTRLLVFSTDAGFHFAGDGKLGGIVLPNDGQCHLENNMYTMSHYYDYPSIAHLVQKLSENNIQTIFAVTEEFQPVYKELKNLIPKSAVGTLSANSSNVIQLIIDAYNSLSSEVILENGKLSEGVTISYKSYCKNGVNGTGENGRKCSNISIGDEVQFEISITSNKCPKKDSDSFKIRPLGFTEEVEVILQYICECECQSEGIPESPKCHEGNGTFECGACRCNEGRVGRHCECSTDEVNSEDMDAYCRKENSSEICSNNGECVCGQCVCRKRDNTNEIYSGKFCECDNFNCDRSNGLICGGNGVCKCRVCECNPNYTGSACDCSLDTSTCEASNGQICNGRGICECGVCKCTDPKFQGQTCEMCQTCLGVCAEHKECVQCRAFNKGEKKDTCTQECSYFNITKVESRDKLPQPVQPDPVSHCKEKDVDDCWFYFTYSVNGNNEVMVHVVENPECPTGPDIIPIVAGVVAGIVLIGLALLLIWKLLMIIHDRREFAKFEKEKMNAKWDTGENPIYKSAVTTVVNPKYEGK

B1: scFv antibody Bc-15 (scFv)
scFv: MAQVQLVQSGAEVKEPGSSVKVSCKASGGTFSSYAIYWVRQAPGQGLEWMGWINPDSGDTNSAQQFQGRVTMTRDTSISTAYMELSRLRSDDTAMYYCARPPRGDGPDYWGQGTLVTVSSGGGGGS[letters of about 100 residues not shown]RGLGGLVDYKDDDDK
notes: Human scFv from a cancer patient phage library, with an RGD motif in CDR-H3; FITC-labelled in the internalization experiment; also called scFv Bc-15
B1: the binding result was “no binding”.
